Experimental data published in patent US20140004122A1, “METHODS FOR TREATING OR PREVENTING CHOLESTEROL RELATED DISORDERS” (AMGEN INC., priority 2011, published 2014).

Assays:
[1] = Pharmacokinetics in cynomolgus monkeys; format: in vivo, cynomolgus monkey; details: 0.5 mg/kg single SC
Description: Antibody concentrations in serum were determined using an enzyme-linked immunosorbent assay (ELISA) with an assay range of 34.4 to 3000 ng/mL (34.4 ng/mL being the lower limit of quantitation [LLOQ]).
Non-compartmental analysis (NCA) was performed on the serum concentrations using the pre-determined nominal time points for each subject using Watson® LIMS, version 7.0.0.01 (Thermo Scientific, Waltham, Mass.). Data points for estimating the terminal elimination rate constants and half-lives were chosen by visual inspection of the concentration-time profile and best linear fit (typically from 360 h until the antibody concentrations dropped below the lower limit of quantitation).
NCA parameters reported include: terminal half-life (t1/2,z), the maximum serum concentration (Cmax), area under the serum concentration-time curve from time zero to infinity (AUC0-inf), and apparent serum clearance (CL/F). AUC0-inf was calculated using the linear log-linear trapezoidal method. All parameters were all reported to three significant figures, except for half-life which was reported to two significant figures.

[2] = Pharmacokinetics in mice expressing human PCSK9 by AAV; format: in vivo, mouse; details: intravenous dose of 30 mg/kg
Description: Serum concentrations of antibody were determined using a sandwich ELISA assay. Polyclonal goat anti-human Fc IgG and an HRP-labeled goat anti-human IgG Fcγ polyclonal reagent (both from Jackson ImmunoResearch Laboratories Inc, West Grove, Pa.) were used as the capture and the detection antibody, respectively. A 3,3′,5,5′ tetramethylbenzidine (TMB) substrate solution reacted with peroxide, and in the presence of horse radish peroxidase (HRP), created a colorimetric signal that was proportional to the amount of the respective anti-PCSK9 antibody bound by the capture reagent. The intensity of the color (optical density, OD) was measured at 450 nm minus 650 nm using a microplate reader (Spectra Max Plus 384). Data was analyzed using Watson version 7.0.0.01 (Thermo Scientific, Waltham, Mass.) data reduction package with a Logistic (auto-estimate) regression of separately prepared standard curves. The lower limit of quantification (LLOQ) for the assay was ng/mL. 34.4.
Non-compartmental analysis (NCA) was performed on serum concentrations using the pre-determined nominal time points for each subject using WinNonlin Enterprise, version 5.1.1 (Pharsight, St. Louis, Mo.). […] NCA parameters reported include: apparent half-life (t1/2), area under the serum concentration-time curve from time zero to the last measured concentration (AUC0-t), and apparent serum clearance (CL0-t). […]

[3] = Viscosity of 11F1 formulations; format: physicochemical
Description: Concentration determination was then carried out by measuring absorbance at A280 using an Agilent 8453 Spectrophotometer (Santa Clara, Calif.). Protein concentration was calculated using the appropriate extinction coefficient. The appropriate amount of buffer was then added to the sample to dilute it back down to the desired concentration and another A280 was performed to obtain the final concentration for the experiment. Excipients were added individually to the 11F1 formulations samples derived from the high concentration stock solutions.
Viscosity was measured using Brookfield LV-DVII cone and plate viscometer (Middleboro, Mass.) with a CPE-40 spindle with matching sample cup temperature regulated by a circulating water bath at constant 25° C. 500 μL of sample was added to sample cup with positive displacement pipettor. […] At this point the rotational speed was stopped and a viscosity reading was generated by Rheocalc software.
High concentration protein formulations were sometimes measured using a different type of viscometer, an Anton Paar Physica Model MCR300 with a CP50-1 spindle. A 600 uL sample is used in this instrument and Rheoplus software version 3.4 was use to calculate solution viscosity. There was not a large difference in measurements using either viscometer.

[4] = test system: cynomolgus monkeys; test: Serum lipids after single subcutaneous dose in cynomolgus monkeys (Example 36); format: in vivo, cynomolgus monkey; details: 0.5 mg/kg single SC
Text: Briefly, naive male cynomolgus monkeys were acclimated to their environment for at least 2 weeks prior to experimentation. Animals were randomized into treatment groups based on a pre-screen of their serum TC, HDL-C, LDL-C, and triglyceride levels, and their body weight. After 1 week, animals were fasted overnight, and bled from the peripheral vasculature (cephalic or saphenous vein), for measurement of baseline serum lipid levels at a time point designated T=0. […] Fasting blood samples were then collected from animals at designated time points over a 45 day period.
At specified time points, blood was collected from animals under overnight fasting conditions from the peripheral vasculature (cephalic or saphenous vein). Whole blood was allowed to coagulate for 30 minutes at room temperature. Following centrifugation at 3,000 rpm for 20 minutes, serum was collected. Direct serum cholesterol analysis was performed using the Cobas Integra 400 analyzer (Roche Diagnostics Inc, Indianapolis, Ind.). Apolipoprotein B serum levels were determined at specified time points (day 0, 3, 6, 15, 24 and 33) by Anilytics, MD, with the following methodology. A 17 μL aliquot of the sample (no preparation) was used for analysis with a Hitachi 717 Analyzer using a 6 points standard curve. If the initial value of the sample was higher than the standard curve linearity, then the sample was diluted and repeated with the result multiplied by the appropriate dilution factor. The reagents for the assay (APO-B Reagent Kit #86071, Antibody Set #86060, Control Set #86103) were obtained from DiaSorin (Stillwater, Minn.).
A statistical model that considers baseline as a covariate and treatment group as a fixed effect was fit to the log transformed response at each time point for LDL-C, HDL-C, TC, and triglycerides. Tukey's multiple comparison correction was applied to adjust the pair wise comparisons at each time point. The statistical significance was evaluated at alpha=0.05 using adjusted p-values.

B1: 11F1: anti-PCSK9 antibody; light/heavy variable region SEQ ID NO 465/463 (antibody, listed as Homo sapiens, V domains shown)
VH: EVQLVESGGGLVQPGGSLRLSCAASGFTFSNYWMSWVRQAPGKGLEWVASIKQDGSEKYYVDSVKGRFAISRDNAKNSLFLQMNSLRAEDTAVYYCARDLVLMVYDIDYYYYGMDVWGQGTTVTVSS
VL: [about 100 residues not spelt out]YCMQTLQTPLTFGGGTKVEIK
With B1 the “CL/F as percent of 21B12 CL/F” value [1] was “approximately 15%”, the half-life [1] was “approximately 200 h” and the “pharmacokinetic behavior (AUC0-t, CL0-t, apparent half-lives)” value [2] was “very similar pharmacokinetic behavior”. The “Viscosity (cP) @ 25 C.” value ([3]; 11F1 145 mg/mL, 10 mM sodium acetate, 9% Sucrose 0.01% PS 20, pH 5.2) was 14 cP, the “Viscosity (cP) @ 25 C.” value ([3]; 11F1 147 mg/mL, 10 mM sodium acetate, 150 mM Methionine, 3% Sucrose, 0.01% PS 20, pH 5.2) was 13 cP and the “Viscosity (cP) @ 25 C.” value ([3]; 11F1 170 mg/mL, 10 mM sodium acetate, 250 mM Proline, 0.01% PS 20, pH 5.0) was 18 cP. For the same molecule, the “Viscosity (cP) @ 25 C.” value ([3]; 11F1 172 mg/mL, 10 mM sodium acetate, 9% Sucrose 0.01% PS 20, pH 5.2) was 23 cP, the “Viscosity (cP) @ 25 C.” value ([3]; 11F1 186 mg/mL, 10 mM sodium acetate, 9% Sucrose 0.01% PS 20, pH 5.2) was 45 cP and the “Viscosity (cP) @ 25 C.” value ([3]; 11F1 191 mg/mL, 10 mM sodium acetate, 9% Sucrose 0.01% PS 20, pH 5.2) was 53 cP. The “Viscosity (cP) @ 25 C.” value ([3]; 11F1 192 mg/mL, 10 mM sodium acetate, 150 mM Methionine, 3% Sucrose, 0.01% PS 20, pH 5.2) was 31 cP, the “Viscosity (cP) @ 25 C.” value ([3]; 11F1 196 mg/mL, 10 mM sodium acetate, 250 mM Proline, 0.01% PS 20, pH 5.0) was 36 cP and the “Viscosity (cP) @ 25 C.” value ([3]; 11F1 211 mg/mL, 10 mM sodium acetate, 9% Sucrose, 150 mM Alanine, pH 5.2) was 43 cP. The “Viscosity (cP) @ 25 C.” value ([3]; 11F1 211 mg/mL, 10 mM sodium acetate, 9% Sucrose, 150 mM Glycine, pH 5.2) was 45 cP, the “Viscosity (cP) @ 25 C.” value ([3]; 11F1 211 mg/mL, 10 mM sodium acetate, 9% Sucrose, 150 mM Serine, pH 5.2) was 48 cP and the “Viscosity (cP) @ 25 C.” value ([3]; 11F1 211 mg/mL, 10 mM sodium acetate, 9% Sucrose, 150 mM sodium chloride, pH 5.2) was 62 cP. The “Viscosity (cP) @ 25 C.” value ([3]; 11F1 211 mg/mL, 10 mM sodium acetate, 9% Sucrose, pH 5.2) was 73 cP, the “Viscosity (cP) @ 25 C.” value ([3]; 11F1 211 mg/mL, 10 mM sodium acetate, pH 5.2) was 58 cP and the “Viscosity (cP) @ 25 C.” value ([3]; 11F1 211 mg/mL, line without buffer, standing above 10 mM sodium acetate, 9% Sucrose, 100 mM Arginine, pH 5.2) was 26 cP. For the same molecule, the “Viscosity (cP) @ 25 C.” value ([3]; 11F1 212 mg/mL, 10 mM sodium acetate, 150 mM Methionine, 3% Sucrose, 0.01% PS 20, pH 5.2) was 54 cP, the “Viscosity (cP) @ 25 C.” value ([3]; 11F1 212 mg/mL, 10 mM sodium acetate, 250 mM Proline, 0.01% PS 20, pH 5.0) was 47 cP and the “Viscosity (cP) @ 25 C.” value ([3]; 11F1 224 mg/mL, 10 mM sodium acetate, 9% Sucrose 0.01% PS 20, pH 5.2) was 133 cP. The “Viscosity (cP) @ 25 C.” value ([3]; 11F1 […], 10 mM sodium acetate, 150 mM Methionine, 3% Sucrose, 0.01% PS 20, pH 5.2) was 18 cP, the “Viscosity (cP) @ 25 C.” value ([3]; 11F1 […], 10 mM sodium acetate, 9% Sucrose 0.01% PS 20, pH 5.2) was 8 cP and the “viscosity of formulations with stabilizers” value ([3]; formulations comprising methionine, proline, arginine, glycine, serine and alanine) was “particularly lower viscosity”. For the same molecule, the “TC returned to levels similar to control animals by day” value [4] was ≤ 27 days, the “maximal lowering of LDL-C as compared to anti-KLH IgG2 control antibody-treated monkeys” value [4] was 57% and the “maximal lowering of TC as compared to control animals” value [4] was 27%. The “time of maximal LDL-C lowering after injection” value [4] was 9 days, the “time of maximal TC lowering after injection” value [4] was 9 days and the HDL-C levels ([4]; 45 day study) was “No statistically significant changes”. The triglycerides levels ([4]; 45 day study) was “No statistically significant changes”, the “HDL-C or triglyceride levels vs anti-KLH IgG2 control antibody-treated monkeys” value ([4]; alpha=0.05) was “not significantly different” and the “serum ApoB levels vs anti-KLH IgG2 control antibody-treated monkeys” value ([4]; days 3, 6, 15, 24 and 33) was “ApoB lowering at days 3 to 24”. The “maximal lowering of LDL-C (vs anti-KLH IgG2 control antibody at the same time point)” value ([4]; printed as negative change) was −57%.
